The whole screen tested about 310,000 compounds, of which about 2,200 (0.71%) showed an effect of 50% or more. Effects have a minus sign here. The list shows a part of the results. Where a SMILES comes first, the peptide text is derived from it. The star is where a group is joined. Cbz = O=C(OCc1ccccc1)*
Target: human ether-à-go-go-related gene (hERG) potassium channel (human, UniProt Q12809)
Assay: primary screen, population patch clamp on CHO cells stably expressing hERG

human ether-à-go-go-related gene (hERG) potassium channel, sequence (Q12809 whole entry, looked up): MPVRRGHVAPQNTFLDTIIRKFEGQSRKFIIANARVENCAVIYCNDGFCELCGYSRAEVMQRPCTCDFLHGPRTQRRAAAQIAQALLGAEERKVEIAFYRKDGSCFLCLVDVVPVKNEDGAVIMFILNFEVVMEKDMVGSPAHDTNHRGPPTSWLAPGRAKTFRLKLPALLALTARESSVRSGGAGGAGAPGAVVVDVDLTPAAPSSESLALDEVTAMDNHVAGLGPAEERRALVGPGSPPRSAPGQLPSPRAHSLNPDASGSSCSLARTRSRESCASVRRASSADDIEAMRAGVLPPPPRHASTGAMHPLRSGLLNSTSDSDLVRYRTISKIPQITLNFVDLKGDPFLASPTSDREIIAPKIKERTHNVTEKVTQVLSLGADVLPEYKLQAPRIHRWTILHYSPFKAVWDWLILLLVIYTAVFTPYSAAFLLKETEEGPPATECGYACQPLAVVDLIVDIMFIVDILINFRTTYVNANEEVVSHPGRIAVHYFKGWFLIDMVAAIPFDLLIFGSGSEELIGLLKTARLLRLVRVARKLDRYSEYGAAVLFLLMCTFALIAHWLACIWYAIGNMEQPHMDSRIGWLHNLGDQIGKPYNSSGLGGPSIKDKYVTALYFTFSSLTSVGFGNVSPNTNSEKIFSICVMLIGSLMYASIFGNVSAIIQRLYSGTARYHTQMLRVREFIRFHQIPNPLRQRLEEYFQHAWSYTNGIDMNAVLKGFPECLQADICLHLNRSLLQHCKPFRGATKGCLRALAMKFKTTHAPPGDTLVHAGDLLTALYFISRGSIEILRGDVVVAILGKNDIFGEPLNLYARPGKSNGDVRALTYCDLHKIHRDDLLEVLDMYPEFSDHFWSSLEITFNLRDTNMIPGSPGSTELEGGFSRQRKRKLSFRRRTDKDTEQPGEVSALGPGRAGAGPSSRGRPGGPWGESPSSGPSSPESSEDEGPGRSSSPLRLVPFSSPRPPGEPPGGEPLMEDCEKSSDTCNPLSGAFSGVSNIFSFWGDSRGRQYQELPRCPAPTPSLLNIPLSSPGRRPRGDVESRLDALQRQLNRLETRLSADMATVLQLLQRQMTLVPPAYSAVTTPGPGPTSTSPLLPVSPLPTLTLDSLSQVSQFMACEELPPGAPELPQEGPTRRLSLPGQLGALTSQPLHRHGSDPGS

Row | SMILES | hERG current change (%, negative = inhibition) at 1uM [%]
1 | CC(Sc1nnc(C(F)(F)F)n1C)C(=O)NC(N)=O (stereo not shown) | 4.18
2 | CNC(=O)/C(C#N)=C/c1c(N(Cc2ccccc2)Cc2ccccc2)nc2c(C)cccn2c1=O | 7.78
3 | O=C(N/N=C/c1ccc[nH]1)c1cccc(Br)c1 | 7.7
4 | Cc1ccc(COc2ccc(S(=O)(=O)N3CCCC3)cc2C(N)=O)cc1 | 17.1
5 | Cc1ccccc1S(=O)(=O)Cc1ccc(C(=O)N2CCN(c3cccc(C)c3C)CC2)o1 | 4.95
6 | Cn1c(=O)c2ncn(CC(=O)Nc3nc(-c4ccc(Cl)cc4)cs3)c2n(C)c1=O | 1.76
7 | Cn1cccc1C(=O)NC(=O)COC(=O)c1ccccc1O | 12.4
8 | CC(C)C(NC(=O)OCc1ccccc1)C(=O)NC(Cc1ccc(O)cc1)C(=O)O (stereo not drawn) (Cbz-Val-Tyr-OH; configuration not given here) | 5.45
9 | Cc1ccc(-n2c(C)cc(C(=O)OCC(=O)N(CC(C)C)C3CCS(=O)(=O)C3)c2C)cc1 (stereo not shown) | 11.8
10 | CCN(c1ccccc1)S(=O)(=O)c1ccc(OC)c(NC(=O)CCc2nc3ccccc3c(=O)[nH]2)c1 | -10.4
11 | CCN(CC)C(=O)CN(Cc1ccccc1)S(=O)(=O)c1ccc(F)cc1 | 10.1
12 | O=C(OCC(=O)c1ccc[nH]1)c1ccc(Cl)nc1 | 11.8
13 | C=CCn1c(COc2cccc(C)c2)nnc1SCC(=O)c1c[nH]c2c(CC)cccc12 | 17.4
14 | CC(C)C(=O)NC(=S)Nc1sc2c(c1C(N)=O)CCCC2 | 13.9
15 | COC(=O)C1=C(C)N(Cc2ccccc2)C(=NCc2cc(OC)c(OC)c(OC)c2)N[C@H]1c1cccc(F)c1 | 6.19
16 | CCCCOc1ccc(C(=O)NCC2(c3ccc(OC)cc3)CCOCC2)cc1 | -3.75
17 | C/C(CC(=O)Nc1c(C)cc(C)cc1C)=N\NC(=O)Cc1ccccc1 | 9.93
18 | Clc1ccc(-c2csc3ncnc(N4CCc5ccccc5C4)c23)cc1 | 3.11
19 | CC1(C)CN=C(Nc2ccc(F)c(F)c2)S1 | 12.1
20 | N=Cc1c(O)n(-c2ccc(C34CC5CC(CC(C5)C3)C4)cc2)c(=O)[nH]c1=O | 3.34
21 | CS(=O)(=O)N(CC(=O)NC1CC2CCC1C2)c1cccc(C(F)(F)F)c1 (stereo not shown) | 6.4
22 | CS(=O)(=O)Nc1cccc(-c2cn3c(n2)SCC3)c1 | 24.6

Row | SMILES | hERG current change (%, negative = inhibition) at 1uM [%]
23 | Cc1cccc(N2CCN(C(=O)Cn3ccc4ccccc4c3=O)CC2)c1C | 6.87
24 | CCOc1ccc(OCC)c(NC(=O)CSc2nc3cccnc3n2C)c1 | -1.35
25 | O=C(O)C(Cc1ccccc1)N1C(=O)/C(=C/c2cccnc2)SC1=S (stereo not shown) | 10.6
26 | COc1ccc(NC(=O)c2cc3c(s2)CCC(C)C3)cc1S(=O)(=O)N1CCOCC1 (stereo not shown) | 11.7
27 | Cc1cc(N(C)C)c(C#N)c(=O)[nH]1 | 12.4
28 | CC(=O)NNC(=S)NC(=O)c1cccc([N+](=O)[O-])c1 | 9.98
29 | O=S(=O)(c1ccccc1)N1CCN(S(=O)(=O)c2ccccc2)C1 | 9.03
30 | Cn1nc(C(=O)NC2=NCCS2)ccc1=O | 2.04
31 | CCn1c(=O)cc(SCC(=O)Nc2ccc(C)cn2)c2ccccc21 | 9.41
32 | CC(=O)c1ccc(NC(=O)CSc2nnc(Cc3cccn3C)n2-c2ccc(F)cc2)cc1 | 7.78
33 | CCOC(=O)CNC(=O)C1CCN(S(=O)(=O)c2ccc(-c3nn[nH]n3)cc2)CC1 | 10.7
34 | O=C(CCN1CCN(S(=O)(=O)c2ccc(Br)cc2)CC1)Nc1ccccc1F | -5.02
35 | Cc1ccc2c(c1)OC(c1ccc3c(c1)OCCO3)CC2=O (stereo not shown) | 16.7
36 | Cc1[nH]nc(SCC(=O)NCc2ccc(F)cc2)c1[N+](=O)[O-] | 13.6
37 | CCn1cc(C(=O)NCCCN2CCCC(C)C2)c(=O)c2cc(S(=O)(=O)N(C)C3CCCCC3)ccc21 (stereo not shown) | -82
38 | COc1ccc(NS(=O)(=O)c2cccc(C(=O)OCC(=O)NC3CC3)c2)cc1 | 6.95
39 | CNC(=O)/C(C#N)=C/c1c(N2CCN(C)CC2)nc2c(C)cccn2c1=O | 13.7
40 | COC(=O)C1=C(c2ccc(OC(F)(F)F)cc2)C[C@@H]2CC[C@H]1N2C(=O)N1CCCCC1 | -1.61
41 | CCn1nccc1C(=O)Nc1ccc(Cl)cc1Cl | 11.3
42 | CCOCCN(C=O)c1cccc(OC)c1 | 8.37
43 | CCC1CCCCN1C(=O)c1cc(COc2ccc(-n3cncn3)cc2)on1 (stereo not shown) | -5.17

Source: PMC4336329 (PLoS ONE, 2015)
